Reference: patent US20190167593A1, “C[…] PHARMACEUTICALLY ACCEPTABLE SALT THEREOF, AND APPLICATION OF SAME” (priority 2016, published 2019)

Tested on: influenza virus PR8
Type: in vivo
Settings: i.m. 150 mg/kg once and 75 mg/kg x5 groups

Q: Which disease symptoms does the source give for `CCCCS(=O)(=O)N[C@@H]1CCCN([C@@H]2C=C(C(=O)O)C[C@H](NC(=N)N)[C@H]2NC(C)=O)C1` [(3R,4R,5S)-4-acetamido-5-guanidino-3-((3R)-3-n-butylsulfonamidopiperidin)-1-cyclohexene-1-carboxylic acid] here?
A: The disease symptoms was “Neither the mice in the treated group administering compound to be tested (#32) once in a dosage of 150 mg/kg and the treated group administering compound to be tested (#32) 5 times in a dosage of 75 mg/kg appeared obvious disease symptoms”.

Q: And the deaths / survival (within 10 days)?
A: Its deaths / survival is “None of the mice in the treated group died”.
